Laboratory results as given in patent US20090247734A1 (priority 2005, published 2009).

Assays:
[1] = biological target: full length YU2 gp120 (HIV-1 strain YU2) (UniProt P35961); assay: ITC, gp120 equilibrated with D1D2
YU2 gp120 = settings: peptide at 1 mM

Substance	fold enhancement of binding affinity in the presence of D1D2 [1] [fold]	inhibitory effect on gp120-CD4 binding (YU2 gp120)
17b (human monoclonal antibody of gp120)	4	
PSCDLQ [Compound G1C]		little appreciable interaction with gp120
